Measured values published in publication PMC11995724, “Antibiotic target discovery by integrated phenotypic and activity-based profiling of electrophilic fragments” (Cell chemical biology, 2025).
Hit rate of the full screen: of about 3,200 compounds, about 75 (2%) showed an effect of 50% or more. The list shows a part of the results.

What follows are molecules tested on T1, S. aureus MSSA476. Settings: relative growth, OD600, TSB; 25 µM; inhibitor.
T1 construct: MSSA476
Parameters: species or system S. aureus MSSA476 (TSB) or V. cholerae SAD30 (LB); 384-well bacterial growth screen at 25 uM, OD600 relative to DMSO control

In order of rising “% of control remaining” value:
1. O=C(CCl)Cc1cc(Cl)cc(Cl)c1 [10-I15, 1-chloro-3-(3,5-dichlorophenyl)propan-2-one]  23.125%
2. Cc1cccc(Cl)c1CCCNC(=O)CCl [7-F04, 2-chloro-N-[3-(2-chloro-6-methylphenyl)propyl]acetamide]  69.3878%
3. CCc1ccc(NC(=O)C(C#N)=Cc2cccn2C)cc1 [8-A20, 2-cyano-N-(4-ethylphenyl)-3-(1-methyl-1H-pyrrol-2-yl)prop-2-enamide]  76.0166%
4. Cc1cc(C=C(C#N)C(=O)Nc2ccccn2)c(C)n1CC(C)C [9-J21, 2-cyano-3-[2,5-dimethyl-1-(2-methylpropyl)-1H-pyrrol-3-yl]-N-(pyridin-2-yl)prop-2-enamide]  77.9026%
5. N#CC(=Cc1ccccc1Cl)C(=O)NCc1ccccc1 [9-F13, N-benzyl-3-(2-chlorophenyl)-2-cyanoprop-2-enamide]  78.2022%
6. C=CC(=O)NCC1CCc2nnc(C(C)C)n2C1 (centres unmarked) [2-J03, N-{[3-(propan-2-yl)-5H,6H,7H,8H-[1,2,4]triazolo[4,3-a]pyridin-6-yl]methyl}prop-2-enamide]  84.5953%
7. CCN(C(=O)CCl)c1ccccc1 [6-E15, 2-chloro-N-ethyl-N-phenylacetamide]  87.4146%
8. C=CC(=O)N1CCOC(Cn2nc(C)cc2C)C1 (centres unmarked) [3-C13, 1-{2-[(3,5-dimethyl-1H-pyrazol-1-yl)methyl]morpholin-4-yl}prop-2-en-1-one]  89.5081%
9. CC(Cl)C(=O)NCCC1(CO)CC1 (centres unmarked) [7-H19, 2-chloro-N-{2-[1-(hydroxymethyl)cyclopropyl]ethyl}propanamide]  90.1099%
10. CN(c1ccccc1)S(=O)(=O)c1cccc(NC(=O)CCl)c1 [4-H04, 2-chloro-N-{3-[methyl(phenyl)sulfamoyl]phenyl}acetamide]  90.3287%
11. O=C(CCl)NC(C1CC1)C1CC1 [6-C22, 2-chloro-N-(dicyclopropylmethyl)acetamide]  91.5122%
12. C=CC(=O)NCCC(=O)N1CCOC(c2nc(C)cs2)C1 (centres unmarked) [3-K04, N-{3-[2-(4-methyl-1,3-thiazol-2-yl)morpholin-4-yl]-3-oxopropyl}prop-2-enamide]  92.2943%
13. CC(Cl)C(=O)Nc1ccc(-c2c[nH]cn2)cc1 (centres unmarked) [5-F08, 2-chloro-N-[4-(1H-imidazol-4-yl)phenyl]propanamide]  92.5319%
14. COc1ccccc1CNC(=O)C(C)Cl (centres unmarked) [5-M21, 2-chloro-N-[(2-methoxyphenyl)methyl]propanamide]  93.9891%
15. CC(Cl)C(=O)NC(C)(C)c1cccc(Cl)c1F (centres unmarked) [7-E15, 2-chloro-N-[2-(3-chloro-2-fluorophenyl)propan-2-yl]propanamide]  94.5055%
16. CC(=O)N(C)c1cccc(NC(=O)C(C#N)=Cc2ccco2)c1 [9-L18, 2-cyano-3-(furan-2-yl)-N-[3-(N-methylacetamido)phenyl]prop-2-enamide]  94.6816%
17. C=CC(=O)NCCc1nccs1 [3-M20, N-[2-(1,3-thiazol-2-yl)ethyl]prop-2-enamide]  95.4288%
18. O=C(CCl)N(Cc1cc(F)ccc1F)CC1CCOCC1 [5-P03, 2-chloro-N-[(2,5-difluorophenyl)methyl]-N-[(oxan-4-yl)methyl]acetamide]  95.4463%
19. CC(Cl)C(=O)NCc1ncnn1C(C)C (centres unmarked) [5-P15, 2-chloro-N-{[1-(propan-2-yl)-1H-1,2,4-triazol-5-yl]methyl}propanamide]  95.8106%
20. CC(NC(=O)CCl)C(=O)N1CCCCC1C (centres unmarked) [5-M06, 2-chloro-N-[1-(2-methylpiperidin-1-yl)-1-oxopropan-2-yl]acetamide]  96.1749%
21. O=C(CCl)NCc1ccc(N2CCOCC2)nc1 [6-E22, 2-chloro-N-{[6-(morpholin-4-yl)pyridin-3-yl]methyl}acetamide]  98%
22. Cc1cc(C(=O)CCl)c(C)n1C(C)c1ccccc1 (centres unmarked) [10-P17, 2-chloro-1-[2,5-dimethyl-1-(1-phenylethyl)-1H-pyrrol-3-yl]ethan-1-one]  101.563%
23. C=CC(=O)NCc1ccc(C(=O)N2CCCC23CCOC3=O)cc1 (centres unmarked) [3-I06, N-[(4-{6-oxo-7-oxa-1-azaspiro[4.4]nonane-1-carbonyl}phenyl)methyl]prop-2-enamide]  101.698%
24. COc1ccc(CC2CCN2C(=O)C(C)Cl)cc1 (centres unmarked) [5-O22, 2-chloro-1-{2-[(4-methoxyphenyl)methyl]azetidin-1-yl}propan-1-one]  104.189%
25. N#CC(=Cc1ccc2c(c1)OCCO2)C(=O)NC1CCCCC1 [9-J19, 2-cyano-N-cyclohexyl-3-(2,3-dihydro-1,4-benzodioxin-6-yl)prop-2-enamide]  104.569%
26. C=CC(=O)NC1CC(C2CCCCC2)C1 (centres unmarked) [1-D10, N-(3-cyclohexylcyclobutyl)prop-2-enamide]  105.495%
27. COCc1ccc(CNC(=O)CCl)cc1 [6-O22, 2-chloro-N-{[4-(methoxymethyl)phenyl]methyl}acetamide]  106.195%
28. O=C(CCl)NCc1ccccc1CN1CCCC1=O [6-K14, 2-chloro-N-({2-[(2-oxopyrrolidin-1-yl)methyl]phenyl}methyl)acetamide]  106.878%
29. C=CC(=O)NCc1cn(C(F)F)c2ccccc12 [2-F11, N-{[1-(difluoromethyl)-1H-indol-3-yl]methyl}prop-2-enamide]  107.92%
30. C=CC(=O)NCc1cn(-c2ccccc2)nn1 [2-I13, N-[(1-phenyl-1H-1,2,3-triazol-4-yl)methyl]prop-2-enamide]  109.661%
31. C=CC(=O)N1CCC(c2nc(C(=O)O)cs2)CC1 [1-O21, 2-[1-(prop-2-enoyl)piperidin-4-yl]-1,3-thiazole-4-carboxylic acid]  110.066%
32. O=C(CCl)NC1CCN(C(=O)c2ccccc2)C1 (centres unmarked) [7-P06, N-(1-benzoylpyrrolidin-3-yl)-2-chloroacetamide]  111.146%
33. CN1C=CC(=C(C#N)C(=O)CCl)C=C1 [10-G21, 4-chloro-2-(1-methyl-1,4-dihydropyridin-4-ylidene)-3-oxobutanenitrile]  112.5%
34. C=CC(=O)N1CCC(n2ncc3ccccc32)CC1 [1-K22, 1-[4-(1H-indazol-1-yl)piperidin-1-yl]prop-2-en-1-one]  113.934%
35. NC(=O)c1csc(C(=O)CCl)c1 [10-L06, 5-(2-chloroacetyl)thiophene-3-carboxamide]  114.687%
36. O=C(CCl)NC1CCCc2cn(C3CCCC3)nc21 (centres unmarked) [5-O09, 2-chloro-N-(2-cyclopentyl-4,5,6,7-tetrahydro-2H-indazol-7-yl)acetamide]  114.754%
37. Cc1cccc(NC(=O)C(C#N)=Cc2cc(C)n(C3CC3)c2C)c1 [9-D17, 2-cyano-3-(1-cyclopropyl-2,5-dimethyl-1H-pyrrol-3-yl)-N-(3-methylphenyl)prop-2-enamide]  114.757%
38. C=CC(=O)N1CCC(C(=O)Nc2ccn(Cc3ccccn3)n2)CC1 [3-B07, 1-(prop-2-enoyl)-N-{1-[(pyridin-2-yl)methyl]-1H-pyrazol-3-yl}piperidine-4-carboxamide]  115.629%
39. C=CC(=O)N(CC)CC(=O)N1CCn2c(nc(C)c2C)C1 [2-B18, N-(2-{2,3-dimethyl-5H,6H,7H,8H-imidazo[1,2-a]pyrazin-7-yl}-2-oxoethyl)-N-ethylprop-2-enamide]  116.623%
40. Cc1c(C#N)c(NC(=O)CCl)n(C2CCCCC2)c1C [4-N18, 2-chloro-N-(3-cyano-1-cyclohexyl-4,5-dimethyl-1H-pyrrol-2-yl)acetamide]  117.008%
41. C=CC(=O)N1CCOC(c2ccc(F)c(C)c2)C1 (centres unmarked) [3-A09, 1-[2-(4-fluoro-3-methylphenyl)morpholin-4-yl]prop-2-en-1-one]  117.022%
42. Cc1cccc(NC(=O)C(C#N)=Cc2cc(C)c(C)cc2C)c1 [8-C18, 2-cyano-N-(3-methylphenyl)-3-(2,4,5-trimethylphenyl)prop-2-enamide]  119.834%
43. C=CC(=O)Nc1ccc(F)c(-n2nnnc2C)c1 [2-K11, N-[4-fluoro-3-(5-methyl-1H-1,2,3,4-tetrazol-1-yl)phenyl]prop-2-enamide]  122.541%
44. CN(Cc1cc(-c2ccccc2)[nH]n1)C(=O)CCl [5-D15, 2-chloro-N-methyl-N-[(5-phenyl-1H-pyrazol-3-yl)methyl]acetamide]  126.412%
45. CC(=O)Nc1ccc(NC(=O)C(C)Cl)cc1 (centres unmarked) [5-N06, 2-chloro-N-(4-acetamidophenyl)propanamide]  128.233%
46. O=C(O)C(c1ccccc1)N1C(=O)C=CC1=O (centres unmarked) [10-E21, 2-(2,5-dioxo-2,5-dihydro-1H-pyrrol-1-yl)-2-phenylacetic acid]  130.313%
47. CCc1ccc(C(NC(=O)CCl)c2cccc(F)c2)cc1 (centres unmarked) [4-C20, 2-chloro-N-[(4-ethylphenyl)(3-fluorophenyl)methyl]acetamide]  149.786%
